In all, about 110,000 compounds were measured (“z-score”: median about -0.1, highest 2% from about 2 on). Some of the results follow.
Biological target: Metabotropic glutamate receptor 8 (Rattus norvegicus) (UniProt P70579)
Assay: mGluR8 Gi/Go-coupled signaling modulation – cell-based, rat, thallium flux, HTS, primary screen (AID 488969)
Conditions: HEK293 rat mGluR8, GIRK (G protein-gated inwardly rectifying potassium channel) thallium flux, FluoZin2; at 10 µM; stronger effect = higher value; submaximal glutamate (EC20) added with thallium

UniProt P70579, sequence (P70579 whole entry, looked up): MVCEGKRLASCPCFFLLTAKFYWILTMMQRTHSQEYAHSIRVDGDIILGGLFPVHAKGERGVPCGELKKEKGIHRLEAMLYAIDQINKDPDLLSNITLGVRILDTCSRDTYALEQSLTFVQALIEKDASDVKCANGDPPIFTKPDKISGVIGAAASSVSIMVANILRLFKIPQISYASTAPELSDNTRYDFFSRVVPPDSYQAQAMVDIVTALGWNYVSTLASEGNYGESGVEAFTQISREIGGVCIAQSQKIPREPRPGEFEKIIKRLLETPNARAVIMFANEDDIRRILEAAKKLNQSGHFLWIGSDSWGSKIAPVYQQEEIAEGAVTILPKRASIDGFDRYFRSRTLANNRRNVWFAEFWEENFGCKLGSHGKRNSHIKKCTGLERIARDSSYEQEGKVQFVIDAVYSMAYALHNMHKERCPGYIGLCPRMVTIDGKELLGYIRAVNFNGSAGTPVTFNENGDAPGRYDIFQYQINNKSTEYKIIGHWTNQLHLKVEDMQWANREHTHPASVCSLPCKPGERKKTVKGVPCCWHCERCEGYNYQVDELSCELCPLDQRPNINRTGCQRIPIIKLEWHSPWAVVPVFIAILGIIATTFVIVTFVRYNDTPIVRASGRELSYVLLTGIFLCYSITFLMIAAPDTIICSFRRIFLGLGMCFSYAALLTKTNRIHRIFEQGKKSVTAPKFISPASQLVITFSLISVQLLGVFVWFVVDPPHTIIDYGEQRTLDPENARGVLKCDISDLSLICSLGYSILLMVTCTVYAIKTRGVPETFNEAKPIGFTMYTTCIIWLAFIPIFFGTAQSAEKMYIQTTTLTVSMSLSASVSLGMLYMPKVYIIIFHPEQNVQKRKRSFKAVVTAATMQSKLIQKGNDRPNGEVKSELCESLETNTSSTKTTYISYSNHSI

SMILES	z-score
Cc1ccccc1C(=O)c1c[nH]c(C(=O)NCc2cccs2)c1	0.307
C/C(N)=C(/C#N)C(=O)COC(=O)c1cc(C)n(-c2ccc(F)cc2)c1C	-0.578
Cc1cc(-c2csc(NC(=O)c3ccc(=O)n(C)n3)n2)c(C)n1CC1CCCO1 (centres undefined)	-1.41
CC1(C)CC(=O)C=C(NCc2ccco2)C1	-0.0748
O=C(O)CCc1ccc(-c2ccccc2)n1-c1cccc(O)c1	0.824
Cc1ccc(N2CCN(C(=O)N3CCCC3)CC2)cc1C	0.263
CCNC(=O)COc1ccc(-c2ccccc2)cc1	-0.138
c1ccc(NCC2OCc3ccccc3CO2)cc1	-0.104
CC1(C)CC(=O)C(C2(O)C(=O)N(Cc3ccccc3)c3ccccc32)CO1 (centres undefined)	-0.385
CC(C)C1Oc2ccccc2N(CC(=O)NCCCN2C(C)CCCC2C)C1=O (centres undefined)	0.132
CCOc1ccc(-n2cc(C(=O)Nc3cccc(C)n3)c3cc(OC)c(OC)cc3c2=O)cc1	-0.379
CCN(CC)c1ccc(NC(=O)c2cnn(CC)c2)cc1	-0.00246
COc1cccc(-c2nc(-c3ccc(NC(=O)c4cccnc4)cc3)no2)c1	0.903
Cc1cc([N+](=O)[O-])c(-c2ccc(/C=N/n3cnnc3)o2)cc1Cl	-0.526
Clc1cccc(Cl)c1Cn1nnc(-c2cccs2)n1	1.93
COc1ccccc1C1C(C(N)=O)=C(C)Nc2ncnn21 (centres undefined)	-0.00954
CC(=O)c1c(C)nc(C)nc1NC(=O)Cc1ccccc1	-0.359
Cc1ccc(SCCOCCN2CCc3ccccc3C2)cc1	0.529
N#Cc1c(=O)c2nc(NCc3ccccc3)ncc2n2ccccc12	-0.143
CC(C)CNC(=O)C(=O)NNC(=O)C1CCCCC1	1.21
CCN(CC)CCOC(=O)c1cccc(OC)c1	-0.193
COC(=O)CCC(=O)NNC(=O)CCCOc1ccc(Cl)cc1Cl	0.0585
Cc1ccc(/C=N/NC(=O)CCCOc2ccc(Cl)cc2Cl)cc1[N+](=O)[O-]	-0.174

SMILES	z-score
COc1ccc(-c2nc(Cn3c(SCc4ccc(F)cc4)nc4ccncc43)c(C)o2)cc1OC	0.565
O=C(N/N=C/C1CC=CCC1)c1ccc(Cl)cc1O (centres undefined)	-0.0913
Cc1ccc(-c2nn(-c3ccccc3)cc2/C=N/NC(=O)c2ccc(Br)o2)cc1	-0.0869
O=C(COC(=O)c1cccc(S(=O)(=O)N2CCc3ccccc32)c1)NC1CCS(=O)(=O)C1 (centres undefined)	-0.363
Cc1cc(C(=O)COC(=O)CN=C2NS(=O)(=O)c3ccccc32)c(C)n1CCc1ccc(Cl)cc1	-0.267
Cc1cc(=O)[nH]c(N2CCN(Cc3ccccc3)CC2)n1	-0.021
O=C(Nc1nnc(-c2ccccc2Cl)o1)c1cc2cc([N+](=O)[O-])ccc2s1	0.848
CCn1c(SCC(=O)Nc2ccc(S(N)(=O)=O)cc2)nnc1-c1ccccc1OC	-0.0171
CCN1C(=O)c2cccc3c(S(=O)(=O)N(C(=O)c4ccncc4)c4ccc(OC)cc4)ccc1c23	-0.184
COc1cc(C(=O)NC(=S)Nc2ccc([N+](=O)[O-])cc2C)cc(OC)c1OC	-0.056
CC(C)OC(=O)CC12CN3CC(CC(=O)OC(C)C)(CN(C1)C(=O)c1ccccc1C3=O)C2=O	-0.294
CCCc1ccc(-c2c(C)sc(NC(=O)c3ccnn3C)c2C#N)cc1	-0.124
COc1ccc(CCNC(=O)c2cc(CC(C)C)on2)cc1OC	-0.0915
Cc1ccc2nc3c(cc(C#N)c(=N)n3CCCN3CCOCC3)c(=O)n2c1	0.43
O=C(COc1ccc(S(=O)(=O)N2CCOCC2)cc1)Nc1ccccc1C(F)(F)F	1.25
Cc1ccc(CCNC(=O)C2CCCN(C(=O)c3cc4sccc4n3C)C2)cc1 (centres undefined)	-0.287
COC(=O)c1cc(OC)c(OC)cc1NC(=O)CC1CCCCC1	-0.624
COc1ccc2c(c1)CCc1c(C(=O)NCCc3ccc(OC)c(OC)c3)noc1-2	-1.38
N#CCCSCc1ccc(OCC(=O)O)cc1	-0.199
COc1ccc(N2CCN(C(=O)C(Cc3ccccc3)n3cccc3)CC2)cc1 (centres undefined)	-0.419
CN(C)C(=O)Cn1nc(-c2ccccc2)c2ccccc2c1=O	0.23
COCCn1c(=O)[nH]c2cc(C(=O)NCc3cccnc3)ccc2c1=O	-0.183
O=C(Cn1c(Cc2ccccc2)nc2ccccc21)NCc1ccc2c(c1)OCO2	-0.253

SMILES	z-score
Cc1ccc(-c2c(C(=O)NCc3ccccc3)oc(=O)c3ccccc23)cc1	0.292
Nc1cccc(-n2nnnc2CN2CCOCC2)c1	1.94
Cc1ccc(-c2nnn(CC(=O)N(Cc3ccccc3F)C(C(=O)NC3CCCC3)c3ccncc3)n2)o1 (centres undefined)	-0.155
O=C(COc1ccc(Cl)cc1Cl)NC1CCSC1=O (centres undefined)	-0.434
CC(C)CC1NC(=O)N(CC(=O)c2ccc3c(c2)OCCO3)C1=O (centres undefined)	-0.0713
COc1ccc(Nc2nc(Cl)nc(NCc3ccco3)n2)c(OC)c1	0.00838
O=C(c1sc2ccccc2c1Cl)N(Cc1cccs1)C1CCS(=O)(=O)C1 (centres undefined)	-0.282
Cc1ccc(NC(=O)C2CCN(C(=O)NC3CCCCC3)CC2)cc1	0.0162
Cc1ccc(C2/C(=C(/O)c3ccc(OC(C)C)cc3)C(=O)C(=O)N2CCN2CCOCC2)cc1 (centres undefined)	-0.251
CC(C)(C)C(=O)CSc1nc2c(c(-c3cccs3)c1C#N)CCC2	-0.545
Cc1ccc(C)c(C(=O)CSc2nnnn2-c2cccnc2)c1	0.0368
COc1ccc2occ(NC(C)=O)c2c1	0.453
CCN(CC)c1ccc(NC(=O)c2ccccc2Br)cc1S(=O)(=O)Nc1ccccc1OC	0.207
CC1C[C@@]2(NC(=O)NC2=O)C(C)CN1C (some centres undefined)	-0.0512
COc1ccc(Nc2ncc(C(=O)N3CCN(Cc4ccccc4)CC3)c3ccccc23)cc1	-0.319
CN(NC(=S)Nc1ccc(OC(F)F)cc1)C(=S)Nc1ccc(OC(F)F)cc1	0.288
CC(Sc1nnc(-c2ccc(O)cc2)o1)C(=O)Nc1cccc2ccccc12 (centres undefined)	-0.795
Cc1nnc(C)n1/N=C/c1ccc(C(=O)O)cc1	-0.174
O=C(CCCCn1c(=S)[nH]c2ccsc2c1=O)NCc1ccco1	-0.611
Cc1c(Cl)cccc1NC(CC(=O)c1ccccc1)C(=O)O (centres undefined)	-0.125
CCc1ccccc1NCC(=O)Nc1ccccc1C(=O)OC	-0.497
Cc1ccsc1C(=O)OCC(=O)Nc1ccc(Cl)cc1C(F)(F)F	-0.158
Cc1nccn1CCc1n[nH]c(=S)n1Cc1ccccc1	-0.156
